PubChem BioAssay AID1963866 (Molecular Pharmacology Branch, DTP, NCI, 2024)
Not every entry of the source has a single result; some have several. This is not the full list of results. The source may hold further records. Values that stand side by side are repeated measurements in other runs, samples, wells, individuals or studies. Brackets with × count equal records among those shown. Marks such as [2022-09] give the month of the run.

Test system: PDC KRAS tumor spheroids with HUVEC/MSC, viability
Experiment: Anticancer human tumor 349418-098-R-PDC patient-derived lung adenocarcinoma cell line growth inhibition [KRAS2]
Settings: for viability, T/C: stronger effect = lower value; for IC50: compound alone
Description: Multicellular complex tumor spheroid response to RAS pathway inhibitors in combination with a targeted agents in patient-derived cell lines with oncogenic KRAS variants from multiple cancer types
A high-throughput screen of multi-cell type tumor spheroids was designed to identify active combinations of targeted small molecules and KRAS pathway inhibitors. Complex spheroids include a stromal component modeled by human endothelial cells (HUVEC) and fibroblasts modeled by human mesenchymal stem cells (MSCs). The concentration ranges selected for each drug and investigational agent were based upon clinically achievable concentrations if the clinical Cmax of the agent was known.
Compounds. The drugs and investigational agents: BI-3406 (NSC825286), BAY-293 (NSC824723), batoprotafib (TNO155; NSC825523), sotorasib (AMG 510; NSC818433), MRTX1257 (NSC819558), elimusertib (BAY 1895344; NSC800525), molibresib (GSK525762; NSC774829), temuterkib (LY3214996; NSC803410), venetoclax (NSC766270), alisertib (NSC759677), olaparib (NSC753686), talazoparib (NSC767125), erdafitinib (NSC781556), ipatasertib (NSC767898), cabozantinib (NSC761068), nintedanib (NSC756659), abemaciclib (NSC768073), docetaxel (NSC628503), trametinib (NSC758246), and sapanisertib (NSC764658) were obtained from the National Cancer Institute (NCI) Developmental Therapeutics Program Chemical Repository. The FDA-approved anticancer drug set is available from the Developmental Therapeutics Program. […] The stock solutions were prepared in dimethyl sulfoxide (DMSO, Sigma-Aldrich, St. Louis, MO, cat. D2650) at 800-fold the tested concentration and stored at -70 degrees C prior to their use. All drugs and investigational agents were tested over a range starting from a high concentration at or near the clinical Cmax and decreasing in half-log increments. If the clinical Cmax for an agent had not been determined, the highest concentration tested was 10 microM.
Cell Culture. All cells were maintained in an incubator at 37 degrees C and 5% CO2 with 95% humidity. The PDC lines were cultured according to standard operating procedures established by the NCI PDMR (https://pdmr.cancer.gov/sops/default.htm). Briefly, all PDCs were thawed and cultured in Matrigel-coated flasks prepared with a working solution of 1X Ham's F-12 nutrient mix, without supplementation (Invitrogen, Waltham, MA, cat. 11765054), 100 U/mL penicillin-streptomycin (Invitrogen, cat. 15140122), and 2.5% Matrigel (Corning Inc., Corning, NY, cat. 354248) for the first three passages. All PDCs were cultured in complete DMEM/F-12 media containing advanced DMEM/F-12 (Invitrogen, cat. 12634028), 4.9% defined fetal bovine serum, heat inactivated (HyClone Laboratories Inc., Logan, UT, cat. SH30070.03HI), 389 ng/mL hydrocortisone (Sigma-Aldrich, cat. H4001), 9.7 ng/mL human EGF recombinant protein (Invitrogen, cat. PHG0313), 23.4 microg/mL adenine (Sigma-Aldrich, cat. A2786), 97.3 U/mL penicillin-streptomycin (Invitrogen, cat. 15140122), 1.9 mM L-glutamine (Invitrogen, cat. 25030081), and 9.7 microM Y-27632 dihydrochloride (Tocris Bioscience, Bristol, United Kingdom, cat. 1254). The PDCs were cultured in complete DMEM/F12 media without 9.7 microM Y-27632 dihydrochloride for at least two passages prior to the screen. The established cell line HOP-62 was cultured in RPMI 1640 medium, HEPES (Invitrogen, cat. 22400105) with 10% defined fetal bovine serum (HyClone Laboratories Inc., cat. SH30070.03) and 2 mM L-glutamine (Invitrogen, cat. 25030081). The pooled donor HUVEC were cultured in endothelial cell growth medium 2 (PromoCell, Heidelberg, Germany, cat. C-22011) and the hMSC were cultured in mesenchymal stem cell growth medium 2 (PromoCell, cat. C-28009). For all experiments, HUVEC and hMSC were used at passages </=5, while the malignant cell lines were used at passages </=15. […]
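Also: spheroids exposed to compounds for seven days before readout.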

CC1OCC2(CCN(c3cnc(Sc4ccnc(N)c4Cl)c(N)n3)CC2)C1N (stereo unspecified)
viability, T/C (compound alone 0.1 µM): 83, 89.8, 103, 92, 88.5, 119, 102, 105, 97, 99.6, 104, 99.2, 76.7, 80, 112, 121, 84.7, 114, 79.9% | viability, T/C (compound alone 0.316 µM): 93.5, 92.3, 97 (2×), 105, 107, 121, 101 (2×), 92.2, 95.5, 98.3, 83.9, 84.3, 87.3, 96.7, 102, 110, 93.8% | viability, T/C (compound alone 1 µM): 96.1, 81.5, 109, 80.2, 108, 107, 97, 99.5, 91.3, 96.9, 103 (2×), 97.4, 105 (2×), 89.3, 92.4, 116, 94.7% | viability, T/C (compound alone 3.16 µM): 28.5, 63.3, 96.8, 83.1 (2×), 82.1, 107, 98.4, 86.7, 87.8, 93.7, 87.3, 98.6, 95.5, 87.5, 114, 100, 86.2, 94.4, 94.9% | viability, T/C (compound alone 10 µM): 81.5 (2×), 84.4, 94.4, 71.1, 86, 98, 80, 79.6, 70.1, 82.4, 94.6, 99.7, 68, 80.6, 94.5, 104, 84.5, 91.7, 85.2%

C=CC(=O)N1CCN(c2nc(=O)n(-c3c(C)ccnc3C(C)C)c3nc(-c4c(O)cccc4F)c(F)cc23)C(C)C1 (stereo unspecified)
viability, T/C (compound alone 0.1 µM): 119, 94.6, 100 (2×), 96.5, 116, 133, 102, 96.6, 97.7 (2×), 99.3, 109, 81.5, 105, 107, 82.5% | viability, T/C (compound alone 0.316 µM): 119, 98, 99, 97.6, 124, 15.2, 99.8, 91.3, 93.8, 92.3, 83.3, 108, 98.8, 95.8, 87, 86.4, 96.4% | viability, T/C (compound alone 1 µM): 101, 98.4, 85.1, 79, 114, 69.7, 96.2, 70.4, 79.3, 83, 82, 88.7, 90.5, 92.7, 78.4, 103, 93.1% | viability, T/C (compound alone 3.16 µM): 85.4, 68.8, 79.1, 53.9, 91.5, 50.4, 70.2, 53.2, 63.7, 66.5, 54.9, 69.9, 73.9, 74, 67.6, 61.2, 71.6% | IC50 (run of 07/12/2021): 8.7 µM, 6.45 µM, 6.44 µM, 3.79 µM, 9.5 µM, 288 nM

CCNC(=O)CC1N=C(c2ccc(Cl)cc2)c2cc(OC)ccc2-n2c(C)nnc21 (stereo unspecified)
viability, T/C (compound alone 0.0316 µM): 79.6, 92.9, 99.3, 78.9, 72.3%

COc1cc(Nc2ncc3c(n2)-c2ccc(Cl)cc2C(c2c(F)cccc2OC)=NC3)ccc1C(=O)O
viability, T/C (compound alone 0.0316 µM): 14.2, 46.7, 47.3, 58.1, 53%

CNCc1ccccc1-c1csc(C(C)Nc2nc(C)nc3cc(OC)c(OC)cc23)c1 (stereo unspecified)
viability, T/C (compound alone 0.1 µM): 114, 102 (2×), 107, 96.5, 125, 126, 97.8, 115, 99, 101, 99.7 (2×), 92.4, 119, 96.4, 86.9% | viability, T/C (compound alone 0.316 µM): 114, 104, 80.2, 70.4, 101, 95.1, 99.7, 115, 100, 98.5, 94.4, 108, 124, 113, 96.2, 92.9, 102% | viability, T/C (compound alone 1 µM): 111, 98.4, 113, 75.1, 78.5, 98.6, 101, 91.9, 80.6, 84.6, 81.1, 40.3, 54.9, 58.3, 54, 31.9, 28.4% | viability, T/C (compound alone 3.16 µM): 110, 88, 0.17, 0.12, 0.16, 0.1, 0.09 (2×), 0.08 (2×), 0.07, 0.28, 0.05, 0.06% | IC50 (run of 07/12/2021): 1.47 µM and 1.77 µM and 6.01, 5.2, 1.78, 1.53 µM [2021-07]

CCN1CCN(Cc2ccc(Nc3ncc(F)c(-c4cc(F)c5nc(C)n(C(C)C)c5c4)n3)nc2)CC1
IC50: 6.97 nM, < 3.16 nM, 4.87 nM, 5.04 nM, 5.76 nM

CC1COCCN1c1cc(-c2ccnn2C)c2ccnc(-c3ccn[nH]3)c2n1 (stereo unspecified)
IC50: 28.6 nM, 28.2 nM, 41.3 nM, < 10 nM, 25.2 nM | viability, T/C (compound alone 0.01 µM): 105, 103, 107, 9.53, 121% | viability, T/C (compound alone 0.0316 µM): 44.8, 44.3, 61.1, 6.57, 32.1%

COc1cc2nccc(Oc3ccc(NC(=O)C4(C(=O)Nc5ccc(F)cc5)CC4)cc3)c2cc1OC
viability, T/C (compound alone 1 µM): 82.2, 80.2, 87.6, 12.8, 95.2% | viability, T/C (compound alone 10 µM): 22.1, 19, 18.2, 107, 25.2%

COC(=O)c1ccc2c(C(=Nc3ccc(N(C)C(=O)CN4CCN(C)CC4)cc3)c3ccccc3)c(O)[nH]c2c1
IC50: 722 nM, 81.5 nM, 763 nM, 1.28 µM, 1.49 µM | viability, T/C (compound alone 0.0316 µM): 53.7, 63.8, 97.5, 107, 110% | viability, T/C (compound alone 0.1 µM): 59.5, 38.4, 74.1, 76.1, 85.6% | viability, T/C (compound alone 0.316 µM): 63.4, 42.7, 73.2, 79.4, 95.8% | viability, T/C (compound alone 1 µM): 44.8, 32, 43.8, 65.2, 63.7%

CN(C)C/C=C/C(=O)Nc1cc2c(Nc3ccc(F)c(Cl)c3)ncnc2cc1O[C@H]1CCOC1
viability, T/C (compound alone 0.000316 µM): 92.6, 99.4, 106, 80.5, 102% | viability, T/C (compound alone 0.00316 µM): 84.6, 102, 108, 98.8, 119% | viability, T/C (compound alone 0.01 µM): 87.8, 101, 106, 91.2, 114%

COc1cc(OC)cc(N(CCNC(C)C)c2ccc3ncc(-c4cnn(C)c4)nc3c2)c1
viability, T/C (compound alone 0.316 µM): 94.5, 80.1, 70.2, 104%

C=CC(=O)N1CCN(c2nc(OCC3CCCN3C)nc3c2CCN(c2cccc4cccc(C)c24)C3)CC1CC#N (stereo unspecified)
viability, T/C (compound alone 0.0316 µM): 110, 97.6, 102 (2×), 68.8, 104, 91, 109, 99.8, 92.2, 97.9, 103, 112, 82.7, 96.2, 91.9, 95.4% | viability, T/C (compound alone 0.1 µM): 125, 101 (2×), 80.1, 98.7, 115, 106, 97, 107, 102, 86.9, 92.7, 103, 98, 97.5, 89.5, 110% | viability, T/C (compound alone 0.316 µM): 114, 82.8, 74.5, 50.2, 116, 104 (2×), 58.1, 110, 85.3, 92.4, 85.7, 108, 79, 95.4, 90.6, 90.1% | viability, T/C (compound alone 1 µM): 104, 90.5, 50.2, 32.6, 90.6, 77.5 (2×), 92.3, 74.7, 80.2, 76.4, 69.3, 73.5, 64.2, 66.3, 63.2, 65.2% | viability, T/C (compound alone 3.16 µM): 104, 0.14 (2×), 0.1 (2×), 0.24, 0.09, 0.18, 0.15, 0.26, 0.27, 0.13, 0.19, 1.71, 0.12% | IC50 (run of 07/12/2021): 468 nM and > 3.16 µM, 1.68 µM, 890 nM, 1.5 µM [2021-07]

COc1cc2nc(C)nc(NC(C)c3cc(N)cc(C(F)(F)F)c3)c2cc1OC1CCOC1 (stereo unspecified)
viability, T/C (compound alone 0.1 µM): 74, 91.1, 84.2, 85.3, 99.5, 105, 101, 127, 102 (2×), 93.6, 100, 95.7, 7.97, 92.8, 113% | viability, T/C (compound alone 0.316 µM): 77.5, 80.2, 88.8, 106, 108, 97.3 (2×), 101 (2×), 112, 95.4, 99.9, 94.8, 65.8, 99.5, 95.8% | viability, T/C (compound alone 1 µM): 91.6, 101 (4×), 99.5, 83.6, 109, 87.3, 123, 96.5, 86.1, 95.2, 90.6, 162, 97.4% | viability, T/C (compound alone 3.16 µM): 49.5, 64.4, 80.5, 82.5, 90.5, 93.6, 87.5, 120, 89.9, 87.9, 87.2, 71.6, 88.4, 135, 81.8, 85.5% | viability, T/C (compound alone 10 µM): 57.2, 75.2, 99.4, 31, 20.1, 17.2, 30.5, 60.6, 39, 29.2, 41, 21.6, 17.9, 35.9, 30.7, 32.6% | IC50 (run of 07/12/2021): > 10 µM, 6.53 µM, 6.04 µM, 6.11 µM | IC50 (run of 07/19/2021): 6.64 µM, > 10 µM, 7.79 µM, 6.67 µM, 8 µM | IC50 (run of 07/26/2021): 5.2 µM, 5.9 µM, < 100 nM, 6.47 µM, 6.78 µM

O=C(c1cc(Cc2n[nH]c(=O)c3ccccc23)ccc1F)N1CCN(C(=O)C2CC2)CC1
IC50: 405 nM, 283 nM, 5.03 µM, 4.63 µM, 2.92 µM | viability, T/C (compound alone 0.316 µM): 53.1, 43.7, 77.1, 94.3, 75% | viability, T/C (compound alone 1 µM): 29.7, 30.4, 88.6, 81.1, 72% | viability, T/C (compound alone 3.16 µM): 18.5, 19.6, 63.4, 60.1, 43.4% | viability, T/C (compound alone 10 µM): 10.9, 12.8, 31.7, 30.7, 43.9%
